These are yes or no findings as the source states them, for the method shown. In cells and extracts the contact can be indirect. Some binding calls cover weakened binding; strength is not graded here. For some of these results: Where a sequence is shown, tags or fusion partners need not be part of it.
Tests used:
[1] = target: T1, Plakophilin 4 (PKP4), endogenous in mouse keratinocytes (mouse (endogenous in mouse keratinocytes)) (UniProt Q68FH0); experiment: co-IP; anti-PKP4 antibody and Protein A agarose on lysates of WT keratinocytes, PKP4-KO cells in parallel as control; IP buffer 20 mM Tris-HCl pH 7.5, 137 mM NaCl, 2 mM EDTA, 10% glycerol, 1% NP-40; overnight at 4 °C; western blot
T1 sequence: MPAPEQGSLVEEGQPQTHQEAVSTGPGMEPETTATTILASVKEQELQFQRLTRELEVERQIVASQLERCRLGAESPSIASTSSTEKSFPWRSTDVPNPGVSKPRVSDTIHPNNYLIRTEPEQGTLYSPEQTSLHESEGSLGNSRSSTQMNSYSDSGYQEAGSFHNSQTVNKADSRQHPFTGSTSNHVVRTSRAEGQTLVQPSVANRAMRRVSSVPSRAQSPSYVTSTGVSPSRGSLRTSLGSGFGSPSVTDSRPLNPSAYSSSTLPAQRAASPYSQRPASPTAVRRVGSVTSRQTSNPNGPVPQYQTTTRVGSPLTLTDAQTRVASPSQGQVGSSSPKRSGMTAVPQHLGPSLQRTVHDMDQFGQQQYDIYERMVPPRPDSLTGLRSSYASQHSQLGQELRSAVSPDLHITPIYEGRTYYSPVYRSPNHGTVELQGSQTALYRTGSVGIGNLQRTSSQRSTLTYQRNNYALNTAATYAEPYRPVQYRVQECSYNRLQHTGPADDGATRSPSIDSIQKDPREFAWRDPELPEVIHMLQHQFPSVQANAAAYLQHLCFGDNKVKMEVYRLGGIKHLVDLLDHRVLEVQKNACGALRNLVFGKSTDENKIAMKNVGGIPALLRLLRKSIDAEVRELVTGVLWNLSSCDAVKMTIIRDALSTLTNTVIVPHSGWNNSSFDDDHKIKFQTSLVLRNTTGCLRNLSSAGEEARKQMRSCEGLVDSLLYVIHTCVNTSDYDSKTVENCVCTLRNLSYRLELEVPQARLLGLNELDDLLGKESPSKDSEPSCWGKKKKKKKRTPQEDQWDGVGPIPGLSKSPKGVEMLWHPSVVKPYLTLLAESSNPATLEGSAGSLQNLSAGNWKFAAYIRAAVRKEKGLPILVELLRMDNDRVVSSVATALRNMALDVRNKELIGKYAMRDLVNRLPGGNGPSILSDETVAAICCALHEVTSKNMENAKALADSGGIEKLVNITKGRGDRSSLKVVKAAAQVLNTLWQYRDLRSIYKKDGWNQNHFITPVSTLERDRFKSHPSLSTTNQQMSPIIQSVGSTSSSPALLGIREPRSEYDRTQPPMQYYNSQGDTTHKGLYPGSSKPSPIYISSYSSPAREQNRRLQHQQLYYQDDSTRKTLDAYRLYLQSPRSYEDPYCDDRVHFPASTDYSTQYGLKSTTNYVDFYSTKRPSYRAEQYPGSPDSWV

Chains of the proteins cited; added tags and fusions are not shown.
UniProt P70336: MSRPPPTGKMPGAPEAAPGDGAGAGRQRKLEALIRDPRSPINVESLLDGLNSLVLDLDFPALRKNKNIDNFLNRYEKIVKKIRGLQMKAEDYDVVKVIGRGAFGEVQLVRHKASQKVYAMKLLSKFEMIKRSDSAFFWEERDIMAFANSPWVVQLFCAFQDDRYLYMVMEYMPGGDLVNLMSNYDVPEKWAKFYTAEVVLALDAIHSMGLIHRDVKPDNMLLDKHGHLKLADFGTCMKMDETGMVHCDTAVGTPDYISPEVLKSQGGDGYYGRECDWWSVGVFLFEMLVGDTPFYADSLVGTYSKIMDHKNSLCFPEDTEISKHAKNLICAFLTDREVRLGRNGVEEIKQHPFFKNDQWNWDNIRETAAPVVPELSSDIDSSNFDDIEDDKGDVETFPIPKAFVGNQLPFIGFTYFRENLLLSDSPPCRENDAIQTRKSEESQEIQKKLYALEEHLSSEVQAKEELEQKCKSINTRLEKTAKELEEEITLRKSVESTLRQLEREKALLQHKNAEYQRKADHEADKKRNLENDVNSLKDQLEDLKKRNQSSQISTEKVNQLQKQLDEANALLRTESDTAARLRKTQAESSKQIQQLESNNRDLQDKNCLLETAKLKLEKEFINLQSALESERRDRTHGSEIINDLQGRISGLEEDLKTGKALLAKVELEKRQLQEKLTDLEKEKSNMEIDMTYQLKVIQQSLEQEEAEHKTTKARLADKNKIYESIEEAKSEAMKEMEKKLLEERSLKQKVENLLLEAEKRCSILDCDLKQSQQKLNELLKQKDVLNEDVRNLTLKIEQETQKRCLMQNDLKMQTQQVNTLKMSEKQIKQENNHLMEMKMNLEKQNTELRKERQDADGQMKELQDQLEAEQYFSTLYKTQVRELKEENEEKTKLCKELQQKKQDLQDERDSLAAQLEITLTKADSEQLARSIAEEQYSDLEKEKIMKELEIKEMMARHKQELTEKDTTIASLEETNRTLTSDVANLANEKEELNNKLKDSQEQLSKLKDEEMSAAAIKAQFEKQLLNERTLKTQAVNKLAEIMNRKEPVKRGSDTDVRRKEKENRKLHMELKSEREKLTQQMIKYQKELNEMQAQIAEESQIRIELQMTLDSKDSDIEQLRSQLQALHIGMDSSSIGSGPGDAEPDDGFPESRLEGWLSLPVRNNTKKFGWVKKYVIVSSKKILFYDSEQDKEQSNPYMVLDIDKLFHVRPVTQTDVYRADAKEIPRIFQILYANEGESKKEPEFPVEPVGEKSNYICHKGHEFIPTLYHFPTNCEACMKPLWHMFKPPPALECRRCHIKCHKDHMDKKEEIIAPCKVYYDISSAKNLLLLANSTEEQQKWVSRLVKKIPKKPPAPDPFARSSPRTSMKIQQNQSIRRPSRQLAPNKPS
UniProt Q6PDN3: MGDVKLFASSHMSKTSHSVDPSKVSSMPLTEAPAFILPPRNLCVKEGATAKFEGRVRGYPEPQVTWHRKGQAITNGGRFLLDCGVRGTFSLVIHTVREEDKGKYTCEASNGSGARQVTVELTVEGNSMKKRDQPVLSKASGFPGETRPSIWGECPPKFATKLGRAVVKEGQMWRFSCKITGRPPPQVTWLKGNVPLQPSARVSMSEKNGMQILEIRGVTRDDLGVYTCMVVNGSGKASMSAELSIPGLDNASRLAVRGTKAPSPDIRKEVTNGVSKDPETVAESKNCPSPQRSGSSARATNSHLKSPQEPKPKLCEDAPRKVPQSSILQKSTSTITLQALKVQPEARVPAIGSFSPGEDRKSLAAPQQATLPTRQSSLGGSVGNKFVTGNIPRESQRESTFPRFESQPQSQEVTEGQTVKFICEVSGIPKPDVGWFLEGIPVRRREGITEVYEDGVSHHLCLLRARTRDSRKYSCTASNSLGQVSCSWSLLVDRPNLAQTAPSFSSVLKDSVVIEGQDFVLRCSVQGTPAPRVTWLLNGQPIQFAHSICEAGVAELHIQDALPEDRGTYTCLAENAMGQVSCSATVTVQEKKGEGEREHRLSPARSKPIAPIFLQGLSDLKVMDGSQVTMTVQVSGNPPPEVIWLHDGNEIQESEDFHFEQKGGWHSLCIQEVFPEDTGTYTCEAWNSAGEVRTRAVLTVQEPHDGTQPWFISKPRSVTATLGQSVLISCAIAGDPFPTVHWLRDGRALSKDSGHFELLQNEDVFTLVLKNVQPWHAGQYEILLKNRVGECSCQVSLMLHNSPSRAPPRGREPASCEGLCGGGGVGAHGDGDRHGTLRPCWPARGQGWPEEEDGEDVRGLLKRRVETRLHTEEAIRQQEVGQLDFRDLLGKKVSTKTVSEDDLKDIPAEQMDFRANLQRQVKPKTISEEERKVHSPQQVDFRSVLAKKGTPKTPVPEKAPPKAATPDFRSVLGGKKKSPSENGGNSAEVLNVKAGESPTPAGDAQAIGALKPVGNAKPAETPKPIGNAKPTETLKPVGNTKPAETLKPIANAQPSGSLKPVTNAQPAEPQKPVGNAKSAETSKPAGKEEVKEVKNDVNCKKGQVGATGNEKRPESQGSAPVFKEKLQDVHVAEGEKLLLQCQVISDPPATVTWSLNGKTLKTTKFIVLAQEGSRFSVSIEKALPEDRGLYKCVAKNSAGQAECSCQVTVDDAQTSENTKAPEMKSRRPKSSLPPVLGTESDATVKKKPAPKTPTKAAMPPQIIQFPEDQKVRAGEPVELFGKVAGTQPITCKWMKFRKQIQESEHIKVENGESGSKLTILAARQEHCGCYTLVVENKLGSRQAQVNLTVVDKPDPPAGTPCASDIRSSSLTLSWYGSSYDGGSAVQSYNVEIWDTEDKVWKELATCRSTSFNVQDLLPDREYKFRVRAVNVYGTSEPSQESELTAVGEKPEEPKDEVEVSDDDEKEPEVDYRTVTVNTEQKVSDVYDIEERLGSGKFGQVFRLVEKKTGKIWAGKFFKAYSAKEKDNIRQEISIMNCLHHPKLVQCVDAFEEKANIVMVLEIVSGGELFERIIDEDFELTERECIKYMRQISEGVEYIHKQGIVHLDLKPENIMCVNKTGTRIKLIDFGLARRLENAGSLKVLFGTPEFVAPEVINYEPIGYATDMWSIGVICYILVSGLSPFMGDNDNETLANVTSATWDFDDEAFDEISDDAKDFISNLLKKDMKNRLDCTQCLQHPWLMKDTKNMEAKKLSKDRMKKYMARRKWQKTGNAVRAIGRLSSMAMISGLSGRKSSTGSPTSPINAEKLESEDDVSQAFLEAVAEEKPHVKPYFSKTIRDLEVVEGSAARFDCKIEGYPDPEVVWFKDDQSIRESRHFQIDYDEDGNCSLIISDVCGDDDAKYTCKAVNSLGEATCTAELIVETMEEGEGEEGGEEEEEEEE

[2] = target: T2, human PKP4 N-terminally tagged with EGFP (EGFP-PKP4-WT) (human) (UniProt Q99569); experiment: co-IP; GFP-Trap Agarose on lysates of PKP4-KO + GFP-PKP4 (Rescue) keratinocytes, WT + GFP cells as control; IP buffer 20 mM Tris-HCl pH 7.5, 137 mM NaCl, 2 mM EDTA, 10% glycerol, 1% NP-40; 1 h at 4 °C; western blot
T2 sequence: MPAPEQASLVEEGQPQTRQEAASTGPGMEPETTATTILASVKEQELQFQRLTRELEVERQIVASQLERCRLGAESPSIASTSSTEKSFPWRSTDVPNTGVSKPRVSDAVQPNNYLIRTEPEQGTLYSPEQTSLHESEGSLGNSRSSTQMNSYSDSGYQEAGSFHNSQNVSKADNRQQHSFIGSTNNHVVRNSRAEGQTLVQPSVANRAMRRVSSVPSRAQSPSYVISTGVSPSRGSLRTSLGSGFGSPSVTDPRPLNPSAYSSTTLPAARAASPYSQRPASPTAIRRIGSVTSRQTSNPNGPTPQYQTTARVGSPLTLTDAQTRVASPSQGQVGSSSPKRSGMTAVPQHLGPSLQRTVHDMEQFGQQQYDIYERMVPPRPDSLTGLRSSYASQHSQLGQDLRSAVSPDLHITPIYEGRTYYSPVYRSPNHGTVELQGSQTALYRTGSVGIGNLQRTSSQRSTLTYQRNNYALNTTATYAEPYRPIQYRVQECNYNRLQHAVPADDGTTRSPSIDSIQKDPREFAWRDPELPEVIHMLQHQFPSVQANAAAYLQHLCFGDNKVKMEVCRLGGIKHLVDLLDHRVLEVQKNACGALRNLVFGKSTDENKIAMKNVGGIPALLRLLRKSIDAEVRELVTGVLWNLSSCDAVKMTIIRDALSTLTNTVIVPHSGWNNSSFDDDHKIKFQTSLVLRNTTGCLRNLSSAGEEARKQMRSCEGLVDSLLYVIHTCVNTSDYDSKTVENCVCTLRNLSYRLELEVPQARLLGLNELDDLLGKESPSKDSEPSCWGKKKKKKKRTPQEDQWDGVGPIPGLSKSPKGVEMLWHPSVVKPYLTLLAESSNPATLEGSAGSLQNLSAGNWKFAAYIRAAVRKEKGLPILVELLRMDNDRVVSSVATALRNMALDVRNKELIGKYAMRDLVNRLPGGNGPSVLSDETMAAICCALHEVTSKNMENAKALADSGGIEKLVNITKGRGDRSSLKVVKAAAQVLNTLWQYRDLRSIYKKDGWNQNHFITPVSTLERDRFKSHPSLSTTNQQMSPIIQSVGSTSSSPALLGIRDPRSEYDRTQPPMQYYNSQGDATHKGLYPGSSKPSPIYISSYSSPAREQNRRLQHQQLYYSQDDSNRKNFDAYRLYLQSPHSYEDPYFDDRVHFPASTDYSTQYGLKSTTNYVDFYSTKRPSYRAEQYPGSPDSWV

binding [1]	binding [2]	Substance
binds	binds	ROCK2 (from UniProt P70336 1-1388) (enzyme)
binds	binds	myosin light chain kinase (MLCK) (from UniProt Q6PDN3 1-1941) (enzyme)

Source: PMC11335210
